Source: the supplement of paper PMC4604168 (melanoma cell lines)
This is one part of the list. Repeats are few or missing, and single values can be far off.

Each compound was assayed on WM3619 (assay: cell count relative to DMSO control; melanoma cells; higher = more viable cells). Settings: library dose: standard library concentration; 72 h.
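Further: cells treated in 1,536-well plates, then fixed and DAPI-stained, with nuclei counted from automated high-throughput microscope images.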

Row | SMILES | cell count [%]
1 | C[C@]1(O)C[C@@H](c2nc(-c3ccc4ccc(-c5ccccc5)nc4c3)c3c(N)nccn32)C1 + c1cc(-c2cnn3cc(-c4ccc(OCCN5CCCCC5)cc4)cnc23)ccn1 [Dorsomorphin] (first compound 2 µM, partner dose 2 µM) | 73.9
2 | COc1cc([C@@H]2c3cc4c(cc3[C@@H](O[C@@H]3O[C@@H]5CO[C@@H](C)O[C@H]5[C@H](O)[C@H]3O)[C@H]3COC(=O)[C@H]23)OCO4)cc(OC)c1O [etoposide] + CCc1ccc(CCOc2ccc(CC3SC(=O)NC3=O)cc2)nc1 [pioglitazone] (first compound 0.1 µM, partner dose 10 µM) | 61.3
3 | CCN(CC)CCNC(=O)c1c(C)[nH]c(/C=C2\C(=O)Nc3ccc(F)cc32)c1C [sunitinib] + CCc1ccc(CCOc2ccc(CC3SC(=O)NC3=O)cc2)nc1 [pioglitazone] (first compound 2 µM, partner dose 10 µM) | 100
4 | CCN(CC)CCNC(=O)c1c(C)[nH]c(/C=C2\C(=O)Nc3ccc(F)cc32)c1C [sunitinib] + O=C1NC(=O)/C(=C/c2ccc(-c3ccc(F)cc3O)o2)S1 [AS252424] (first compound 2 µM, partner dose 5 µM) | 103
5 | CCN(CC)CCNC(=O)c1c(C)[nH]c(/C=C2\C(=O)Nc3ccc(F)cc32)c1C [sunitinib] + COc1ccc2c(c1)CCC1C2CCC2(C)C(NCCCCCCN3C(=O)C=CC3=O)CCC12 [U73122] (first compound 2 µM, partner dose 2 µM) | 39.1
6 | Cn1cnc2c(F)c(Nc3ccc(Br)cc3Cl)c(C(=O)NOCCO)cc21 [selumetinib] + Cn1cc(/C=C2\C(=O)Nc3cccnc32)c2ccccc21 [GW441756] (first compound 0.075 µM, partner dose 2 µM) | 66.9
7 | Cn1cnc2c(F)c(Nc3ccc(Br)cc3Cl)c(C(=O)NOCCO)cc21 [selumetinib] + COc1ccc(-c2ccc3c(N4CCOCC4)nc(N4C[C@@H](C)O[C@@H](C)C4)nc3n2)cc1CO [KU0063794] (first compound 0.075 µM, partner dose 0.1 µM) | 70.2
8 | C[C@]1(O)C[C@@H](c2nc(-c3ccc4ccc(-c5ccccc5)nc4c3)c3c(N)nccn32)C1 + CCc1ccc(CCOc2ccc(CC3SC(=O)NC3=O)cc2)nc1 [pioglitazone] (first compound 2 µM, partner dose 10 µM) | 79.6
9 | C[C@]1(O)C[C@@H](c2nc(-c3ccc4ccc(-c5ccccc5)nc4c3)c3c(N)nccn32)C1 + O=c1cc(-c2cccc3c2Sc2ccccc2S3)oc(N2CCOCC2)c1 [KU55933] (first compound 2 µM, partner dose 5 µM) | 86.1
10 | Cn1cnc2c(F)c(Nc3ccc(Br)cc3Cl)c(C(=O)NOCCO)cc21 [selumetinib] + CCCCCCCCCCCC1=C(O)C(=O)C=C(O)C1=O [Embelin] (first compound 0.075 µM, partner dose 6 µM) | 58.8
11 | Cn1cnc2c(F)c(Nc3ccc(Br)cc3Cl)c(C(=O)NOCCO)cc21 [selumetinib] + O=C(Nc1ccccc1)c1cc([N+](=O)[O-])ccc1Cl [GW9662] (first compound 0.075 µM, partner dose 10 µM) | 41.2
12 | COc1cc([C@@H]2c3cc4c(cc3[C@@H](O[C@@H]3O[C@@H]5CO[C@@H](C)O[C@H]5[C@H](O)[C@H]3O)[C@H]3COC(=O)[C@H]23)OCO4)cc(OC)c1O [etoposide] + Oc1nc(-c2ccc(C(F)(F)F)cc2)nc2c1CSCC2 [XAV939] (first compound 0.1 µM, partner dose 10 µM) | 59.7
13 | CCN(CC)CCNC(=O)c1c(C)[nH]c(/C=C2\C(=O)Nc3ccc(F)cc32)c1C [sunitinib] + CC(C)CCN1c2nc(Nc3cc(F)c(O)c(F)c3)ncc2N(C)C(=O)C1C [BID1870] (first compound 2 µM, partner dose 1 µM) | 64.9
14 | Cn1cnc2c(F)c(Nc3ccc(Br)cc3Cl)c(C(=O)NOCCO)cc21 [selumetinib] + CCN(CC)CCCCNc1ncc2cc(-c3cc(OC)cc(OC)c3)c(NC(=O)NC(C)(C)C)nc2n1 [PD173074] (first compound 0.075 µM, partner dose 0.5 µM) | 69.8
15 | CCN(CC)CCNC(=O)c1c(C)[nH]c(/C=C2\C(=O)Nc3ccc(F)cc32)c1C [sunitinib] + O=c1cc(-c2cccc3c2Sc2ccccc2S3)oc(N2CCOCC2)c1 [KU55933] (first compound 2 µM, partner dose 5 µM) | 52
16 | Cn1cnc2c(F)c(Nc3ccc(Br)cc3Cl)c(C(=O)NOCCO)cc21 [selumetinib] + COc1cc2ncnc(Nc3ccc(Oc4ccccc4)cc3)c2cc1OC [SrcI1] (first compound 0.075 µM, partner dose 10 µM) | 76.6
17 | Cn1cnc2c(F)c(Nc3ccc(Br)cc3Cl)c(C(=O)NOCCO)cc21 [selumetinib] + N#Cc1c(O)c2c(-c3ccc(-c4ccccc4O)cc3)csc2[nH]c1=O [A769662] (first compound 0.075 µM, partner dose 10 µM) | 53.4
18 | COc1cc([C@@H]2c3cc4c(cc3[C@@H](O[C@@H]3O[C@@H]5CO[C@@H](C)O[C@H]5[C@H](O)[C@H]3O)[C@H]3COC(=O)[C@H]23)OCO4)cc(OC)c1O [etoposide] + COc1ccc(COc2ccc(Cc3cnc(N)nc3N)cc2OC)cc1 [GW2580] (first compound 0.1 µM, partner dose 5 µM) | 78
19 | COc1cc([C@@H]2c3cc4c(cc3[C@@H](O[C@@H]3O[C@@H]5CO[C@@H](C)O[C@H]5[C@H](O)[C@H]3O)[C@H]3COC(=O)[C@H]23)OCO4)cc(OC)c1O [etoposide] + Oc1cc(-c2nc(-c3ccccc3)[nH]c2-c2ccncc2)ccc1Cl [L779450] (first compound 0.1 µM, partner dose 1 µM) | 52.9
20 | Cn1cnc2c(F)c(Nc3ccc(Br)cc3Cl)c(C(=O)NOCCO)cc21 [selumetinib] + O=S(=O)(c1ccccc1)N(CC(F)(F)F)c1ccc(C(O)(C(F)(F)F)C(F)(F)F)cc1 [T0901317] (first compound 0.075 µM, partner dose 7 µM) | 55.7
21 | C[C@]1(O)C[C@@H](c2nc(-c3ccc4ccc(-c5ccccc5)nc4c3)c3c(N)nccn32)C1 + COc1ccc2c(c1)CCC1C2CCC2(C)C(NCCCCCCN3C(=O)C=CC3=O)CCC12 [U73122] (first compound 2 µM, partner dose 2 µM) | 84
22 | CCN(CC)CCNC(=O)c1c(C)[nH]c(/C=C2\C(=O)Nc3ccc(F)cc32)c1C [sunitinib] + COC(=O)c1sccc1S(=O)(=O)Nc1ccc(Nc2ccccc2)cc1OC [GSK0660] (first compound 2 µM, partner dose 5 µM) | 63.4
23 | COc1cc([C@@H]2c3cc4c(cc3[C@@H](O[C@@H]3O[C@@H]5CO[C@@H](C)O[C@H]5[C@H](O)[C@H]3O)[C@H]3COC(=O)[C@H]23)OCO4)cc(OC)c1O [etoposide] + Cn1cc(/C=C2\C(=O)Nc3cccnc32)c2ccccc21 [GW441756] (first compound 0.1 µM, partner dose 2 µM) | 97.7
24 | COc1cc([C@@H]2c3cc4c(cc3[C@@H](O[C@@H]3O[C@@H]5CO[C@@H](C)O[C@H]5[C@H](O)[C@H]3O)[C@H]3COC(=O)[C@H]23)OCO4)cc(OC)c1O [etoposide] + CC(C)CCN1c2nc(Nc3cc(F)c(O)c(F)c3)ncc2N(C)C(=O)C1C [BID1870] (first compound 0.1 µM, partner dose 1 µM) | 47.5
25 | COc1cc([C@@H]2c3cc4c(cc3[C@@H](O[C@@H]3O[C@@H]5CO[C@@H](C)O[C@H]5[C@H](O)[C@H]3O)[C@H]3COC(=O)[C@H]23)OCO4)cc(OC)c1O [etoposide] + CCN(CC)CCCCNc1ncc2cc(-c3cc(OC)cc(OC)c3)c(NC(=O)NC(C)(C)C)nc2n1 [PD173074] (first compound 0.1 µM, partner dose 0.5 µM) | 80.8
26 | C[C@]1(O)C[C@@H](c2nc(-c3ccc4ccc(-c5ccccc5)nc4c3)c3c(N)nccn32)C1 + O=C(O)C(=O)Nc1sc2c(c1C(=O)O)CCNC2 [TCS401] (first compound 2 µM, partner dose 8.33333 µM) | 77.2
27 | Cn1cnc2c(F)c(Nc3ccc(Br)cc3Cl)c(C(=O)NOCCO)cc21 [selumetinib] + Oc1cc(-c2nc(-c3ccccc3)[nH]c2-c2ccncc2)ccc1Cl [L779450] (first compound 0.075 µM, partner dose 1 µM) | 51.8
28 | C[C@]1(O)C[C@@H](c2nc(-c3ccc4ccc(-c5ccccc5)nc4c3)c3c(N)nccn32)C1 + Cc1cc([N+](=O)[O-])ccc1NS(=O)(=O)c1cc(Cl)ccc1Cl [FH535] (first compound 2 µM, partner dose 5 µM) | 54.8
29 | Cn1cnc2c(F)c(Nc3ccc(Br)cc3Cl)c(C(=O)NOCCO)cc21 [selumetinib] + Oc1nc(-c2ccc(C(F)(F)F)cc2)nc2c1CSCC2 [XAV939] (first compound 0.075 µM, partner dose 10 µM) | 64.1
30 | C[C@]1(O)C[C@@H](c2nc(-c3ccc4ccc(-c5ccccc5)nc4c3)c3c(N)nccn32)C1 + N#Cc1c(O)c2c(-c3ccc(-c4ccccc4O)cc3)csc2[nH]c1=O [A769662] (first compound 2 µM, partner dose 10 µM) | 81.3
